The record followed here is PMC5931534, “Non-canonical activation of DAPK2 by AMPK constitutes a new pathway linking metabolic stress to autophagy” (Nature Communications, 2018).

In the experiment the target is T1, Bcl-XL-L1 (human (cDNA library from HEK293 cells), UniProt Q07817-1).
T1 construct: Bcl-XL, amplified from a cDNA library of HEK293 cells and cloned into a Gaussia luciferase plasmid (GLuc(1)-X or X-GLuc(1)); source: HEK293T, transfected, in lysate
As to the kind of experiment: split reporter (BiFC, NanoBiT); Protein Complementation Assay: Gaussia luciferase fragments L1 (amino acids 1-93) and L2 (94-169) fused to the two proteins, transfected in pairs into HEK293T cells; cells lysed and luminescence measured. The settings on record: partners not purified.

B1: Beclin-1-L2 T119E (natural protein)
chain: not shown
notes: Beclin-1 from a cDNA library of HEK293 cells, in the X-GLuc(2) plasmid, with the phospho-mimicking point mutation T119E in the BH3 domain; also called T119E mutant; source: HEK293T, transfected, in lysate; not shown: Gaussia luciferase fragment L2 ([…]), C-terminal, kept
Turning to B1, the “fold decrease of luminescence signal against Beclin-1 WT” value is around 5 fold.
